Assay results taken from the supplement of paper PMC4967469.
A lower IC50 marks a more sensitive line; a limit (>, <) means that the fit lies beyond the doses tested. For AUC the same curve is integrated over the 256-fold range of doses and scaled to a fraction; the more sensitive the line, the further below 1. For some of these results: An inferred top dose was derived from the fitted curves, not read from the paper.

Assays:
Test in all cases: Viability of human cancer cell lines after 72 h of drug (GDSC screen)
[1] = compound: Cn1nnc2c(C(N)=O)ncn2c1=O [Temozolomide]; conditions: top dose 30 µM
Procedure: (§1)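 Human cancer cell lines in 384-well plates, medium with 10% serum, drug for 72 h over a 256-fold dose range (nine 2-fold or five 4-fold steps up to the top dose). Adherent lines were fixed and stained with the nucleic acid dye Syto60, suspension lines read with resazurin; signal relative to control wells, capped at 0 and 100%. One two-parameter sigmoid per drug and line, fitted in a mixed model over all curves with the slope shared within a line.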

[2] = compound: CCCC[C@@H](C=O)NC(=O)[C@H](CC(C)C)NC(=O)[C@H](CC(C)C)NC(=O)OCc1ccccc1 [Z-LLNle-CHO]; conditions: top dose 2.56 µM; top dose inferred
Procedure: as §1

[3] = compound: COc1cc2c(Oc3ccc(NC(=O)C4(C(=O)Nc5ccc(F)cc5)CC4)cc3F)ccnc2cc1OCCCN1CCOCC1 [XL-880]; conditions: top dose 5.12 µM; top dose inferred
Procedure: as §1

[4] = compound: CN1CCc2c(c3ccccc3n2Cc2ccc(C(=O)NO)cc2)C1 [Tubastatin A]; conditions: top dose 20 µM
Procedure: as §1

[5] = compound: CCC(=O)N1CCN(c2ccc(-n3c(=O)ccc4cnc5ccc(-c6cnc7ccccc7c6)cc5c43)cc2C(F)(F)F)CC1 [JW-7-52-1]; conditions: top dose 1.2 µM; top dose inferred
Procedure: as §1

[6] = compound: CO[C@H]1C[C@@H]2CC[C@@H](C)[C@@](O)(O2)C(=O)C(=O)N2CCCC[C@H]2C(=O)O[C@H]([C@H](C)C[C@@H]2CC[C@@H](O)[C@H](OC)C2)CC(=O)[C@H](C)/C=C(\C)[C@@H](O)[C@@H](OC)C(=O)[C@H](C)C[C@H](C)/C=C/C=C/C=C/1C [Rapamycin]; conditions: top dose 0.1 µM; top dose inferred
Procedure: as §1

[7] = compound: Oc1ccc2ccccc2c1SSc1c(O)ccc2ccccc12 [IPA-3]; conditions: top dose 32 µM; top dose inferred
Procedure: as §1

[8] = compound: CN(C)C/C=C/C(=O)Nc1ccc(C(=O)Nc2cccc(Nc3nccc(-c4cccnc4)n3)c2)cc1 [ZG-10]; conditions: top dose 10 µM; top dose inferred
Procedure: as §1

[9] = compound: O=C(NOCC1CC1)c1ccc(F)c(F)c1Nc1ccc(I)cc1Cl [CI-1040]; conditions: top dose 10 µM; top dose inferred
Procedure: as §1

NCI-H1355 (lung adenocarcinoma, adherent)
AUC [1]: 0.975
IC50 [1]: > 30000 nM
AUC [2]: 0.754
IC50 [2]: 1230 nM
AUC [3]: 0.869
IC50 [3]: > 5120 nM
AUC [4]: 0.977
IC50 [4]: > 20000 nM
AUC [5]: 0.268
IC50 [5]: 12 nM
AUC [6]: 0.163
IC50 [6]: < 0.391 nM
AUC [7]: 0.871
IC50 [7]: > 32000 nM
AUC [8]: 0.715
IC50 [8]: 3380 nM

LNCaP-Clone-FGC (prostate, adherent)
AUC [1]: 0.975
IC50 [1]: > 30000 nM
AUC [2]: 0.952
IC50 [2]: > 2560 nM
AUC [3]: 0.87
IC50 [3]: > 5120 nM
AUC [4]: 0.891
IC50 [4]: > 20000 nM
AUC [5]: 0.935
IC50 [5]: > 1200 nM
AUC [6]: 0.881
IC50 [6]: > 100 nM
AUC [7]: 0.878
IC50 [7]: > 32000 nM
AUC [8]: 0.839
IC50 [8]: 8270 nM

MSTO-211H (mesothelioma, adherent)
AUC [2]: 0.99
IC50 [2]: > 2560 nM
AUC [9]: 0.847
IC50 [9]: 6320 nM
AUC [3]: 0.884
IC50 [3]: 4620 nM
AUC [4]: 0.986
IC50 [4]: > 20000 nM
AUC [5]: 0.893
IC50 [5]: 1190 nM
AUC [6]: 0.945
IC50 [6]: > 100 nM
AUC [7]: 0.982
IC50 [7]: > 32000 nM
AUC [8]: 0.935
IC50 [8]: > 10000 nM

D-247MG (glioma, adherent)
AUC [1]: 0.977
IC50 [1]: > 30000 nM
AUC [2]: 0.953
IC50 [2]: > 2560 nM
AUC [9]: 0.859
IC50 [9]: > 10000 nM
AUC [3]: 0.449
IC50 [3]: 221 nM
AUC [4]: 0.953
IC50 [4]: > 20000 nM
AUC [5]: 0.879
IC50 [5]: > 1200 nM
AUC [6]: 0.979
IC50 [6]: > 100 nM
AUC [8]: 0.772
IC50 [8]: 5340 nM

ES3 (Ewing sarcoma, adherent)
AUC [1]: 0.977
IC50 [1]: > 30000 nM
AUC [2]: 0.968
IC50 [2]: > 2560 nM
AUC [3]: 0.678
IC50 [3]: 1040 nM
AUC [4]: 0.977
IC50 [4]: > 20000 nM
AUC [5]: 0.92
IC50 [5]: > 1200 nM
AUC [6]: 0.981
IC50 [6]: > 100 nM
AUC [7]: 0.738
IC50 [7]: 9960 nM
AUC [8]: 0.638
IC50 [8]: 1540 nM

SCC-15 (head and neck, adherent)
AUC [1]: 0.948
IC50 [1]: > 30000 nM
AUC [2]: 0.857
IC50 [2]: > 2560 nM
AUC [3]: 0.605
IC50 [3]: 687 nM
AUC [4]: 0.951
IC50 [4]: > 20000 nM
AUC [5]: 0.868
IC50 [5]: > 1200 nM
AUC [6]: 0.979
IC50 [6]: > 100 nM
AUC [7]: 0.823
IC50 [7]: 28200 nM
AUC [8]: 0.8
IC50 [8]: 6890 nM

TK10 (kidney, adherent)
AUC [1]: 0.98
IC50 [1]: > 30000 nM
AUC [2]: 0.737
IC50 [2]: 890 nM
AUC [9]: 0.802
IC50 [9]: 6160 nM
AUC [4]: 0.975
IC50 [4]: > 20000 nM
AUC [5]: 0.429
IC50 [5]: 46.1 nM
AUC [6]: 0.847
IC50 [6]: 98.8 nM
AUC [7]: 0.861
IC50 [7]: > 32000 nM
AUC [8]: 0.73
IC50 [8]: 3300 nM

D-336MG (glioma, adherent)
AUC [1]: 0.977
IC50 [1]: > 30000 nM
AUC [2]: 0.878
IC50 [2]: > 2560 nM
AUC [9]: 0.869
IC50 [9]: > 10000 nM
AUC [3]: 0.569
IC50 [3]: 522 nM
AUC [4]: 0.951
IC50 [4]: > 20000 nM
AUC [5]: 0.729
IC50 [5]: 413 nM
AUC [6]: 0.977
IC50 [6]: > 100 nM
AUC [8]: 0.682
IC50 [8]: 2350 nM

NEC8 (testis, adherent)
AUC [2]: 0.982
IC50 [2]: > 2560 nM
AUC [9]: 0.835
IC50 [9]: 5230 nM
AUC [3]: 0.524
IC50 [3]: 367 nM
AUC [4]: 0.839
IC50 [4]: 10800 nM
AUC [5]: 0.804
IC50 [5]: 496 nM
AUC [6]: 0.987
IC50 [6]: > 100 nM
AUC [7]: 0.985
IC50 [7]: > 32000 nM
AUC [8]: 0.988
IC50 [8]: > 10000 nM

NKM-1 (acute myeloid leukaemia, suspension)
AUC [1]: 0.822
IC50 [1]: 18200 nM
AUC [2]: 0.859
IC50 [2]: 2220 nM
AUC [9]: 0.692
IC50 [9]: 2210 nM
AUC [3]: 0.051
IC50 [3]: < 20 nM
AUC [4]: 0.717
IC50 [4]: 5250 nM
AUC [5]: 0.783
IC50 [5]: 522 nM
AUC [6]: 0.911
IC50 [6]: > 100 nM
AUC [7]: 0.838
IC50 [7]: 22500 nM

KOPN-8 (B-cell leukaemia, suspension)
AUC [1]: 0.978
IC50 [1]: > 30000 nM
AUC [2]: 0.778
IC50 [2]: 889 nM
AUC [9]: 0.708
IC50 [9]: 2190 nM
AUC [3]: 0.608
IC50 [3]: 604 nM
AUC [4]: 0.724
IC50 [4]: 4840 nM
AUC [5]: 0.517
IC50 [5]: 82.7 nM
AUC [6]: 0.447
IC50 [6]: 4.57 nM
AUC [7]: 0.648
IC50 [7]: 4820 nM

CESS (acute myeloid leukaemia, suspension)
AUC [1]: 0.963
IC50 [1]: > 30000 nM
AUC [2]: 0.703
IC50 [2]: 541 nM
AUC [9]: 0.908
IC50 [9]: > 10000 nM
AUC [3]: 0.604
IC50 [3]: 591 nM
AUC [4]: 0.811
IC50 [4]: 8790 nM
AUC [5]: 0.367
IC50 [5]: 34.1 nM
AUC [6]: 0.595
IC50 [6]: 10.9 nM
AUC [7]: 0.719
IC50 [7]: 7500 nM

OCI-AML2 (acute myeloid leukaemia, suspension)
AUC [1]: 0.962
IC50 [1]: > 30000 nM
AUC [2]: 0.804
IC50 [2]: 918 nM
AUC [9]: 0.231
IC50 [9]: 135 nM
AUC [3]: 0.477
IC50 [3]: 282 nM
AUC [4]: 0.947
IC50 [4]: > 20000 nM
AUC [5]: 0.335
IC50 [5]: 29.7 nM
AUC [6]: 0.981
IC50 [6]: > 100 nM
AUC [7]: 0.68
IC50 [7]: 5510 nM

P30-OHK (lymphoblastic leukaemia, suspension)
AUC [1]: 0.968
IC50 [1]: > 30000 nM
AUC [2]: 0.945
IC50 [2]: > 2560 nM
AUC [9]: 0.991
IC50 [9]: > 10000 nM
AUC [3]: 0.459
IC50 [3]: 252 nM
AUC [4]: 0.551
IC50 [4]: 1680 nM
AUC [5]: 0.925
IC50 [5]: > 1200 nM
AUC [6]: 0.984
IC50 [6]: > 100 nM
AUC [7]: 0.732
IC50 [7]: 7980 nM

SW872 (soft tissue, adherent)
AUC [1]: 0.987
IC50 [1]: > 30000 nM
AUC [2]: 0.736
IC50 [2]: 698 nM
AUC [3]: 0.836
IC50 [3]: 2940 nM
AUC [4]: 0.965
IC50 [4]: > 20000 nM
AUC [5]: 0.246
IC50 [5]: 15.2 nM
AUC [6]: 0.165
IC50 [6]: 0.683 nM
AUC [7]: 0.736
IC50 [7]: 8690 nM
AUC [8]: 0.939
IC50 [8]: > 10000 nM

REH (B-cell leukaemia, suspension)
AUC [1]: 0.945
IC50 [1]: > 30000 nM
AUC [2]: 0.914
IC50 [2]: > 2560 nM
AUC [9]: 0.964
IC50 [9]: > 10000 nM
AUC [3]: 0.536
IC50 [3]: 399 nM
AUC [4]: 0.838
IC50 [4]: 12700 nM
AUC [5]: 0.819
IC50 [5]: 650 nM
AUC [6]: 0.973
IC50 [6]: > 100 nM
AUC [7]: 0.585
IC50 [7]: 3390 nM
